# Laboratory results published in the supplement of paper PMC10037445.
# Over roughly 2,900 compounds, “NF-kB SEAP reporter activity, fold change vs agonist alone” has its median near 0.99; the highest 2% begin near 2.6. Some of the results follow.
# Key:
# RAW-Dual [1] = experiment: NF-kB SEAP reporter activity, fold change vs agonist alone; cytotoxicity flag (confluency mask): not cytotoxic; higher = enhanced NF-kB activity
# How it was run: (§1)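 Reporter activity is given as fold change relative to agonist-alone wells. To measure it, 50 nL of library stock was pin-tooled onto RAW-Dual macrophages (50,000 cells/well, DMEM, 384-well plates), a PRR agonist followed 1 h later, and cells stayed at 37 °C, 5% CO2. Twenty hours on, supernatant was assayed for IRF (QuantiLuc luminescence) and NF-κB (QuantiBlue, 620 nm absorbance), and wells under 70% of agonist-control IncuCyte confluency in both mask sets were marked cytotoxic.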
# RAW-Dual [2] = experiment: NF-kB SEAP reporter activity, fold change vs agonist alone; higher = enhanced NF-kB activity; details: cytotoxicity flag (confluency mask): not cytotoxic
# How it was run: as §1
# [3] = agonist: ODN 1826 (TLR9) 0.5 ug/mL
# [4] = agonist: Pam2CSK4 (TLR2/6) 0.1 ug/mL
# [5] = agonist: Pam3CSK4 (TLR2/1) 0.1 ug/mL
# [6] = library stock concentration (final ~1000-fold dilution): 10 mM, agonist: Imiquimod (TLR7) […]
# [7] = library stock concentration (final ~1000-fold dilution): 10 mM, agonist: MPLA (TLR4) […]
structure (smiles),measurement,setting,value
Cl.Cl.c1ccc(C2CC2NC2CCNCC2)cc1 (stereo unspecified) (library stock concentration (final ~1000-fold dilution): 10 mM),NF-kB SEAP reporter activity,RAW-Dual [1]; agonist: LPS (TLR4) 0.1 ug/mL,0.855
same,NF-kB SEAP reporter activity,RAW-Dual [1]; [3],0.541
same,NF-kB SEAP reporter activity,RAW-Dual [1]; [4],0.831
same,NF-kB SEAP reporter activity,RAW-Dual [1]; [5],1.31
Cl.Cl.c1ccc(C2CC2NC2CCNCC2)cc1 (stereo unspecified),NF-kB SEAP reporter activity,RAW-Dual [2]; [6],1.05
same,NF-kB SEAP reporter activity,RAW-Dual [2]; [7],1
CN1C2CCC1CC(OC(=O)C(CO)c1ccccc1)C2.CN1C2CCC1CC(OC(=O)C(CO)c1ccccc1)C2.O.O=S(=O)(O)O (stereo unspecified),NF-kB SEAP reporter activity,RAW-Dual [2]; [6],0.838
same,NF-kB SEAP reporter activity,RAW-Dual [2]; [7],0.986
CN1C2CCC1CC(OC(=O)C(CO)c1ccccc1)C2.CN1C2CCC1CC(OC(=O)C(CO)c1ccccc1)C2.O.O=S(=O)(O)O (stereo unspecified) (library stock concentration (final ~1000-fold dilution): 10 mM),NF-kB SEAP reporter activity,RAW-Dual [1]; agonist: LPS (TLR4) 0.1 ug/mL,0.923
same,NF-kB SEAP reporter activity,RAW-Dual [1]; [3],0.83
same,NF-kB SEAP reporter activity,RAW-Dual [1]; [4],0.79
same,NF-kB SEAP reporter activity,RAW-Dual [1]; [5],1.05
Br.C[N+]1([O-])C2CC(OC(=O)C(CO)c3ccccc3)CC1C1OC12.O (stereo unspecified) (library stock concentration (final ~1000-fold dilution): 10 mM),NF-kB SEAP reporter activity,RAW-Dual [1]; agonist: LPS (TLR4) 0.1 ug/mL,0.936
same,NF-kB SEAP reporter activity,RAW-Dual [1]; [3],0.963
same,NF-kB SEAP reporter activity,RAW-Dual [1]; [4],1.05
same,NF-kB SEAP reporter activity,RAW-Dual [1]; [5],0.659
Br.C[N+]1([O-])C2CC(OC(=O)C(CO)c3ccccc3)CC1C1OC12.O (stereo unspecified),NF-kB SEAP reporter activity,RAW-Dual [2]; [6],0.911
same,NF-kB SEAP reporter activity,RAW-Dual [2]; [7],1.07
BrC1C(Br)C(Br)C(Br)C(Br)C1Br (stereo unspecified),NF-kB SEAP reporter activity,"RAW-Dual [2]; library stock concentration (final ~1000-fold dilution): 2 mM, agonist: Imiquimod (TLR7) […]",0.613
same,NF-kB SEAP reporter activity,"RAW-Dual [2]; library stock concentration (final ~1000-fold dilution): 2 mM, agonist: MPLA (TLR4) […]",0.955
BrC1C(Br)C(Br)C(Br)C(Br)C1Br (stereo unspecified) (library stock concentration (final ~1000-fold dilution): 2 mM),NF-kB SEAP reporter activity,RAW-Dual [1]; agonist: LPS (TLR4) 0.1 ug/mL,1.01
same,NF-kB SEAP reporter activity,RAW-Dual [1]; [3],0.796
same,NF-kB SEAP reporter activity,RAW-Dual [1]; [4],0.716
same,NF-kB SEAP reporter activity,RAW-Dual [1]; [5],0.764
c1cc2c(cc1C1OCC3C(c4ccc5c(c4)OCO5)OCC13)OCO2 (stereo unspecified) (library stock concentration (final ~1000-fold dilution): 10 mM),NF-kB SEAP reporter activity,RAW-Dual [1]; agonist: LPS (TLR4) 0.1 ug/mL,1.34
same,NF-kB SEAP reporter activity,RAW-Dual [1]; [3],0.823
same,NF-kB SEAP reporter activity,RAW-Dual [1]; [4],0.803
same,NF-kB SEAP reporter activity,RAW-Dual [1]; [5],1.03
c1cc2c(cc1C1OCC3C(c4ccc5c(c4)OCO5)OCC13)OCO2 (stereo unspecified),NF-kB SEAP reporter activity,RAW-Dual [2]; [6],0.914
same,NF-kB SEAP reporter activity,RAW-Dual [2]; [7],1.01
CCC1(c2cccc(O)c2)CCCCN(C)C1.Cl (stereo unspecified),NF-kB SEAP reporter activity,RAW-Dual [2]; [6],0.945
same,NF-kB SEAP reporter activity,RAW-Dual [2]; [7],0.95
CCC1(c2cccc(O)c2)CCCCN(C)C1.Cl (stereo unspecified) (library stock concentration (final ~1000-fold dilution): 10 mM),NF-kB SEAP reporter activity,RAW-Dual [1]; agonist: LPS (TLR4) 0.1 ug/mL,0.882
same,NF-kB SEAP reporter activity,RAW-Dual [1]; [3],0.856
same,NF-kB SEAP reporter activity,RAW-Dual [1]; [4],0.889
same,NF-kB SEAP reporter activity,RAW-Dual [1]; [5],1.05
CCC1(O)C(=O)OCc2c1cc1n(c2=O)Cc2cc3ccccc3nc2-1 (stereo unspecified) (library stock concentration (final ~1000-fold dilution): 2 mM),NF-kB SEAP reporter activity,RAW-Dual [1]; agonist: LPS (TLR4) 0.1 ug/mL,4.12
C=CC1CN2CCC3(C(=O)Nc4ccccc43)C2CC1/C(=C\OC)C(=O)OC (stereo unspecified) (library stock concentration (final ~1000-fold dilution): 10 mM),NF-kB SEAP reporter activity,RAW-Dual [1]; agonist: LPS (TLR4) 0.1 ug/mL,0.951
same,NF-kB SEAP reporter activity,RAW-Dual [1]; [3],0.904
same,NF-kB SEAP reporter activity,RAW-Dual [1]; [4],0.882
same,NF-kB SEAP reporter activity,RAW-Dual [1]; [5],0.928
